SMILES strings stand for the structures. A value given as a limit tells only on which side of the number the result lay.

Experimental findings from patent US20230159453A1 (COCRYSTAL PHARMA, INC., priority 2020, published 2023) are described below.

The assay addresses Noro protease (Norovirus, UniProt Q83883). Briefly: Norovirus protease inhibition assay (Noro-Norwalk FRET protease assay). Conditions: IC50 (μM), peptide substrate 10 μM, 90 minutes at 37° C., compounds 200 μM to 10.2 nM.
By IC50 is commonly meant the midpoint of a concentration-inhibition curve. Read a low IC50 as greater potency in that assay. Compound `CC(C)C[C@H](NC(=O)OC(c1ccccc1)C(C)(C)c1cccc(Cl)c1)C(=O)NC(CC1CC(C)(C)NC1=O)C(=O)C(N)=O` (stereo partly drawn) [Compound C218, 2-(3-Chlorophenyl)-2-methyl-1-phenylpropyl ((2S)-1-((4-amino-1-(5,5-dimethyl-2-oxopyrrolidin-3-yl)-3,4-dioxobutan-2-yl)amino)-4-methyl-1-oxopentan-2-yl)carbamate] registered an IC50 of more than 200 µM.
Compound `CCN(CC)C(=O)C(=O)[C@H](C[C@@H]1CCNC1=O)NC(=O)[C@H](CC1CCCCC1)NC(=O)OC(c1ccc2ccccc2c1)C(C)(C)c1cccc(Cl)c1` (stereo partly drawn) [Compound C219, 2-(3-Chlorophenyl)-2-methyl-1-(naphthalen-2-yl) propyl ((S)-3-cyclohexyl-1-(((S)-4-(diethylamino)-3,4-dioxo-1-((S)-2-oxopyrrolidin-3-yl)butan-2-yl)amino)-1-oxopropan-2-yl)carbamate] yielded a half-inhibitory concentration (IC50) of more than 200 µM.
`CC1(C)CC(CC(NC(=O)[C@H](CC2CCCCC2)NC(=O)OC(c2cccc(F)c2)C(C)(C)c2cccc(Cl)c2)C(=O)C(N)=O)C(=O)N1` (stereo partly drawn) [Compound C220, 2-(3-Chlorophenyl)-1-(3-fluorophenyl)-2-methylpropyl ((2S)-1-((4-amino-1-(5,5-dimethyl-2-oxopyrrolidin-3-yl)-3,4-dioxobutan-2-yl)amino)-3-cyclohexyl-1-oxopropan-2-yl)carbamate] registered an IC50 of more than 200 µM.
Under `O=C(N[C@@H](CC1CCCCC1)C(=O)N[C@@H](C[C@@H]1CCNC1=O)C(=O)NS(=O)(=O)C1CC1)OCc1cccc(Cl)c1` [Compound C221, 3-Chlorobenzyl ((S)-3-cyclohexyl-1-(((S)-1-(cyclopropanesulfonamido)-1-oxo-3-((S)-2-oxopyrrolidin-3-yl)propan-2-yl)amino)-1-oxopropan-2-yl) carbamate] stands more than 200 µM; under `CC1(C)CC(CC(C=O)NC(=O)[C@H](CC2CCCCC2)NC(=O)OC(c2cccc(F)c2)C(C)(C)c2cccc(Cl)c2)C(=O)N1` (stereo partly drawn) [Compound C222, 2-(3-Chlorophenyl)-1-(3-fluorophenyl)-2-methylpropyl ((2S)-3-cyclohexyl-1-((1-(5,5-dimethyl-2-oxopyrrolidin-3-yl)-3-oxopropan-2-yl)amino)-1-oxopropan-2-yl)carbamate], 13.8 µM.
For `O=CC(CC1CC2(CCCCC2)NC1=O)NC(=O)[C@H](CC1CCCCC1)NC(=O)OC1CCCC1Cc1cccc(Cl)c1` (stereo partly drawn) [Compound C223, 2-(3-Chlorobenzyl)cyclopentyl ((2S)-3-cyclohexyl-1-oxo-1-((1-oxo-3-(2-oxo-1-azaspiro[4.5]decan-3-yl)propan-2-yl)amino)propan-2-yl)carbamate] the value was 22.6 µM; for `O=C[C@H](C[C@@H]1CCNC1=O)NC(=O)[C@H](CC1CCCCC1)NC(=O)O[C@H]1CCC[C@H]1Cc1cccc(Cl)c1` [Compound C224, (1S,2S)-2-(3-Chlorobenzyl) cyclopentyl ((S)-3-cyclohexyl-1-oxo-1-(((S)-1-oxo-3-((S)-2-oxopyrrolidin-3-yl)propan-2-yl)amino)propan-2-yl) carbamate], 7.8 µM.
The compound `O=CC(CC1CC2(CCOCC2)NC1=O)NC(=O)[C@H](CC1CCCCC1)NC(=O)OC1CCCC1Cc1cccc(Cl)c1` (stereo partly drawn) [Compound C225, 2-(3-chlorobenzyl)cyclopentyl ((2S)-3-cyclohexyl-1-oxo-1-((1-oxo-3-(2-oxo-8-oxa-1-azaspiro[4.5]decan-3-yl)propan-2-yl)amino)propan-2-yl)carbamate] had an IC50 of 7 µM. The IC50 values of the last two compounds are within 1.5-fold of each other.
In turn, `CC(C)C[C@H](NC(=O)OC(c1ccc(Cl)cc1)C(C)(C)c1cccc(Cl)c1)C(=O)N[C@@H](C[C@@H]1CCNC1=O)C(=O)C(=O)NC1CC1` (stereo partly drawn) [Compound C226, 2-(3-chlorophenyl)-1-(4-chlorophenyl)-2-methylpropyl ((S)-1-(((S)-4-(cyclopropylamino)-3,4-dioxo-1-((S)-2-oxopyrrolidin-3-yl)butan-2-yl)amino)-4-methyl-1-oxopentan-2-yl)carbamate] displayed a 50% inhibitory concentration (IC50) of 169 µM.
Under `COc1cccc2[nH]c(C(=O)N[C@@H](CC(C)C)C(=O)NC(CC3CC4(CCCCC4)NC3=O)C(=O)CCl)cc12` (stereo partly drawn) [Compound C227, N-((2S)-1-((4-chloro-3-oxo-1-(2-oxo-1-azaspiro[4.5]decan-3-yl)butan-2-yl)amino)-4-methyl-1-oxopentan-2-yl)-4-methoxy-1H-indole-2-carboxamide] stands more than 200 µM.
For `O=C(O)C(=O)C(CC1CC2(CCCCC2)NC1=O)NC(=O)[C@H](CC1CCCCC1)NC(=O)c1cc2ccccc2[nH]1` (stereo partly drawn) [Compound C228, 3-((S)-3-Cyclohexyl-2-(1H-indole-2-carboxamido)propanamido)-2-oxo-4-(2-oxo-1-azaspiro[4.5]decan-3-yl)butanoic acid] the value was 25.8 µM; for `O=CC(CC1CC2(CCC2)NC1=O)NC(=O)[C@H](CC1CCCCC1)NC(=O)OCc1cccc(Cl)c1` (stereo partly drawn) [Compound C229, 3-Chlorobenzyl ((2S)-3-cyclohexyl-1-oxo-1-((1-oxo-3-(6-oxo-5-azaspiro[3.4]octan-7-yl)propan-2-yl)amino)propan-2-yl)carbamate], 4.6 µM; for `CC(C)C[C@H](NC(=O)OC(Cc1ccccc1)C(C)C)C(=O)N[C@H](C=O)C[C@@H]1CCNC1=O` (stereo partly drawn) [Compound C230, 3-Methyl-1-phenylbutan-2-yl ((S)-4-methyl-1-oxo-1-(((S)-1-oxo-3-((S)-2-oxopyrrolidin-3-yl)propan-2-yl)amino)pentan-2-yl)carbamate], 13.4 µM.
Compound `CCOC(=O)/C=C/[C@H](C[C@@H]1CCNC1=O)NC(=O)[C@H](CC(C)C)NC(=O)OC(Cc1ccccc1)c1ccccc1` (stereo partly drawn) [Compound C232, Ethyl (4S, E)-4-((2S)-2-(((1,2-diphenylethoxy)carbonyl)amino)-4-methylpentanamido)-5-((S)-2-oxopyrrolidin-3-yl) pent-2-enoate] had a 50% inhibitory concentration (IC50) of more than 200 µM.
Under `COc1cccc2[nH]c(C(=O)N[C@@H](CC(C)C)C(=O)NC(CC3CC4(CCCCC4)NC3=O)C(=O)CO)cc12` (stereo partly drawn) [Compound C233, N-((2S)-1-((4-hydroxy-3-oxo-1-(2-oxo-1-azaspiro[4.5]decan-3-yl)butan-2-yl)amino)-4-methyl-1-oxopentan-2-yl)-4-methoxy-1H-indole-2-carboxamide] stands more than 200 µM; under `COc1cccc2[nH]c(C(=O)N[C@@H](CC(C)C)C(=O)NC(CC3CC4(CCCCC4)NC3=O)C(=O)C(=O)NC3CC3)cc12` (stereo partly drawn) [Compound C234, N-((2S)-1-((4-(cyclopropylamino)-3,4-dioxo-1-(2-oxo-1-azaspiro[4.5]decan-3-yl)butan-2-yl)amino)-4-methyl-1-oxopentan-2-yl)-4-methoxy-1H-indole-2-carboxamide], 124 µM.
Under `CC(C)(c1cccc(Cl)c1)C(OC(=O)N[C@@H](CC1CCCCC1)C(=O)N[C@@H](C[C@@H]1CCNC1=O)C(=O)C(=O)O)c1ccc2ccccc2c1` (stereo partly drawn) [Compound C235, (3S)-3-((2S)-2-(((2-(3-Chlorophenyl)-2-methyl-1-(naphthalen-2-yl)propoxy)carbonyl)amino)-3-cyclohexylpropanamido)-2-oxo-4-((S)-2-oxopyrrolidin-3-yl)butanoic acid] stands 8.9 µM.
